Experimental data taken from the supplement of paper PMC11417369.
The other results are listed elsewhere or left out.

test system: PfSIP2 AP2 domain 1 (GST-tagged); assay: gcPBM binding intensity (ln(normalized median fluorescence intensity)); higher = stronger DNA binding
How it was run: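 An Agilent 4 × 180k array of primer-extended double-stranded 36-bp intergenic genomic probes, with negative controls, was incubated for 1 h with GST-tagged P. falciparum DNA-binding domains expressed in E. coli. Alexa488 anti-GST antibody detected bound protein, scanned at 488 nm. Binding intensity is the highest Masliner-normalised natural-log median intensity across replicate spots of either probe orientation.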

Sequence	gcPBM binding intensity (ln)
TTTATTATAATATGTTGTACAAGACGTTTCAGTATA [XGTACX_site4486]	7.15
TAAATTAATACCTATGCACACATTTTTTTTTTTAAA [CACACA_site1238]	7.49
CTTAAATTTTTAAATACACACATACACCCATACACA [CACACA_site4461]	7.54
AAACCCTATTCAATGCAATAATTTTATAATTTTTTT [TGCATGCA_negctrl_site434]	6.91
TTTTTTTTAAATATCACACACATATAATATATTCTA [CACACA_site3668]	6.88
TAGCGGCGGTATCATGCACACGTATATATTGTAACA [CACACA_site8453]	7.08
ATAGTTTTATATAAATGTACAAATGATTTCAAATAG [XGTACX_site8236]	7.08
AACATGTATATATTATGTACATATGTTAAAATGATA [XGTACX_site6217]	7.24
TTTTCTTACACGAATTTTAAATTCAATATTAAACAT [CACACA_negctrl_site286]	7.1
TTACCTTTTTCTAATGGTACACATAAAATATCATTT [XGTACX_site6825]	6.95
GAGTTAATTTTTTCGTGTACTTGAAAATATTTTTTT [XGTACX_site6392]	7.21
TTAGCAACTATTACTACACACATTTGTATATAACTT [CACACA_site6850]	7
GTGGAAATATAACACATTTTTTTTAATAATTATATT [TGCATGCA_negctrl_site522]	6.77
TATTTTATGTAAATTGGTACACATATGTCAGTAAAA [XGTACX_site7111]	7.28
GATGCTAAAATTTATACACACAAAAAAAAAAAATTC [CACACA_site3284]	7
AAAAAAAAAAAATATACACACACACCGACACATAAA [CACACA_site9270]	7.13
TTTTGAATATTTGGTCGTACGTAAAAATAGATAATT [XGTACX_site5755]	7.31
TTTCATATTTTGTCCTGTTTTTTTTTTTTTTTTCTT [CACACA_negctrl_site993]	6.74
AAAATATAAAAAGTCACACATATATATATTTATTTA [CACACA_site4872]	6.78
TTGAATGAAAAAATTTGTACTCATATAAATAATTTA [XGTACX_site4628]	6.85
CAATAATTTTTTGTGGGTACAAATAATTTTTTAAAT [XGTACX_site2407]	7.04
AGGAGAAAAGATAAAGACTTCAAGAAAAAAAAATAA [TGCATGCA_negctrl_site258]	6.49

Sequence	gcPBM binding intensity (ln)
TAACAAAACCTTATATGTACACACATATACATCACA [XGTACX_site6772]	7.16
TTAAAAATGAACATATGTACATATATATATATATAT [XGTACX_site7923]	9.39
TTATCATTTTAAATCACACACATATATATATATATA [CACACA_site2849]	9.35
ACTACAAGGCAATACAGTACATATAAATGTCATAAT [XGTACX_site8468]	6.92
TACCTTTTATTAATGTGTACCTAAAATATAATACTT [XGTACX_site192]	7.23
AAAAAGGTTATTGGTACACACATATGTATTTATATA [CACACA_site4464]	6.99
AAAAGAATTACTTTCACACATATATATCTGTAAATA [CACACA_site5798]	7.01
TACATATTTATATACACACACACCCTAAAAATATAT [CACACA_site6861]	7.11
AATAATGAAGCTTATGCACACGTTCATTATTTATAT [CACACA_site5736]	9.71
ATAATTTTTTTTTTTTTTTTTTGAAAGTAGCATATG [CACACA_negctrl_site732]	6.77
AACTTGTGTGGATATTGTACTAACAATATGTATGAT [XGTACX_site6302]	7.29
AATAGTGTATAAATTTGTACATATAATTAAAAGGAA [XGTACX_site1143]	7.34
AATAACTTTTTGAGATGTACATTTTTAATTCGTAGA [XGTACX_site8455]	6.95
ATTCATAAAAAGAGGTGTACATTAATATAATATATA [XGTACX_site8283]	7.25
TTATTCGAACAAAGGAAAAAATATATTCAAAGGAAA [TGCATGCA_negctrl_site215]	6.65
ACTTTAATAATTCACTTATTTTCTTATTATATTATT [CACACA_negctrl_site556]	7.15
GGATTTATTTTATATACACACATACCTATATTTATA [CACACA_site7084]	6.98
TTTTTAACTAACATATCAATTCCATACGTCGTCAAA [CACACA_negctrl_site560]	6.75
TTTAAAAATTTGATCAAACACACGTTGCATAAATTA [CACACA_site3945]	6.89
AGGATATGCAGACACACACACATATAGATTTATATA [CACACA_site7100]	7.08
TCTATATAATACCAATGTACATAGTTTTAAGCATAA [XGTACX_site1889]	6.93
